Source: PubChem BioAssay AID2675 (National Center for Advancing Translational Sciences (NCATS), 2010)
Hit rate of the full screen: of about 280,000 compounds, about 100 (0.036%) were called active. This list was built around the results that the source calls inconclusive (neither active nor inactive); the mix of calls is not that of the screen. Calls come from the whole dose curve; as a rule, active = well fitted inhibition curve with a large enough effect in the signal ratio, with a control signal flat (not every such curve was filed as active); inconclusive = small, poorly fitted or top-dose-only effect, or effect the other way, or a change in a side signal; inactive = no such curve, though single readings can be large or run the other way; the % refers to the signal ratio. Where the call is inconclusive, the potency comes from a doubtful curve fit. “Side channel” marks fits to a control or component signal instead of the main read-out.

What follows are molecules tested against Muscleblind-like protein 1 (Homo sapiens) (UniProt Q9NR56) (assay: qHTS Assay for Inhibitors of MBNL1-poly(CUG) RNA binding). Conditions: TR-FRET MBNL1-His/biotin-(CUG)12 binding, 665/545 ratio; activity change, negative = inhibition: at 57.5 µM (top of the series).
How it was run: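 His-tagged MBNL1 binding to biotinylated (CUG)12 RNA was measured by TR-FRET using terbium anti-His antibody (0.055 ng/ul final) and streptavidin-XL665 (5 nM final). Compounds were titrated 92 nM to 58 uM; 60 min at room temperature.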
% is set by controls: 0 for no effect and ±100 for the full control effect; potency is the fitted concentration of half-maximal effect; tags give direction and shape of the fitted curve or compound fluorescence and quenching.

UniProt Q9NR56, sequence (Q9NR56 whole entry, looked up): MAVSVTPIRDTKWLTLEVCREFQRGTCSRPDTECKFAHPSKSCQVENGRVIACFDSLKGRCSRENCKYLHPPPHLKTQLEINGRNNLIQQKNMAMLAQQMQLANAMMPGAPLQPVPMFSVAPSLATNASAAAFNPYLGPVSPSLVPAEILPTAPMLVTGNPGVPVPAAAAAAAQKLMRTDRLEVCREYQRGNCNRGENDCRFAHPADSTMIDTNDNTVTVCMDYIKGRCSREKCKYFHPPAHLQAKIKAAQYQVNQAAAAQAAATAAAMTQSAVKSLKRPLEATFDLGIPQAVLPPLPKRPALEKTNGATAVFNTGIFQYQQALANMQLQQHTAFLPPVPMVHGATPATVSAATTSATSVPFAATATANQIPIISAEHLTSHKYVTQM

Row | Structure (SMILES) | Potency | activity change, negative = inhibition
1 | CCCCc1nc(SCc2ccc([N+](=O)[O-])cc2)n[nH]1 | inconclusive: 25.1 µM [quencher, side channel, single point] | 
2 | CSc1nccc(-c2nn(-c3ccc(C)cc3)ccc2=O)n1 | inconclusive: 11.2 µM [quencher, side channel, partial curve] | 
3 | O=C(COC(=O)c1ccc2c(c1)OCO2)Nc1ncc(Cl)cc1Cl | inconclusive: 6.31 µM [quencher, side channel, single point] | 
4 | O=[N+]([O-])c1ccccc1OCCOCCOc1cccc2cccnc12 | inconclusive: 39.8 µM [quencher, side channel, single point] | 
5 | CCCn1c(O)c(N=NC(=O)c2ccco2)c2ccccc21 | inconclusive: 2.82 µM [quencher, full curve] | 
6 | CCCN1C(=O)/C(=C/c2ccc(N3CCCC3)c(C)c2)NC1=S | inconclusive: 12.6 µM [quencher, side channel, partial curve] | 
7 | Oc1c(I)cc(Cl)c2cccnc12 |  | inactive: 25.8%
8 | O=C(CSC(=S)N1CCOCC1)c1cc2ccccc2oc1=O | inconclusive: 3.98 µM [quencher, side channel, partial curve] | 
9 | COc1cc(/C=N/NC(=O)Cc2ccccc2)cc([N+](=O)[O-])c1O | inconclusive: 14.1 µM [quencher, side channel, partial curve] | 
10 | O=CN(/C=C1\Sc2ccccc2C1=O)Cc1ccccc1 | inconclusive: 20 µM [quencher, side channel, partial curve] | 
11 | O=[N+]([O-])c1cc(Cl)ccc1NCCNS(=O)(=O)c1ccccc1 | inconclusive: 2.24 µM [quencher, side channel, partial curve] | 
12 | O=c1c(-c2ccco2)[n+]([O-])c2ccccc2n1OCc1ccccc1 | inconclusive: 15.8 µM [quencher, partial curve] | 
13 | O=C(NCC1CCCO1)C(c1cccs1)N(Cc1ccccc1Cl)C(=O)c1ccc(-c2ccccc2)[nH]1 (stereo not given) |  | inactive: 0.377%
14 | CCOc1ccccc1OC(=O)c1cc2ccccc2oc1=O | inconclusive: 15.8 µM [quencher, side channel, partial curve] | 
15 | CCCn1c(NCc2ccccc2NS(=O)(=O)c2ccc(C)cc2)nc2ccccc21 | inconclusive: 0.501 µM [quencher, side channel, partial curve, poor fit] | 
16 | CC1=C(C(=O)N2CCCCC2)C2(CCC(C)CC2)OC1=O (stereo not given) |  | inconclusive: -5.84% [phenotype inactive]
17 | Cc1ccc(-c2nc3sc(C#N)c(N)n3c(=O)c2C#N)cc1 | inconclusive: 2.82 µM [quencher, side channel, full curve, poor fit] | 
18 | Cc1cc(C(=O)OCC(=O)c2ccc(Br)s2)c(C)o1 |  | inactive: 33.5%
19 | COC1=C(Nc2ccc(C)cc2)C(=O)c2ccccc2C1=O | inconclusive: 15.8 µM [quencher, side channel, partial curve] | 
20 | COc1ccccc1/C=N/OCC(=O)NCc1ccc2c(c1)OCO2 | inconclusive: 0.1 µM [fluorescent, side channel, full curve, poor fit] | 

Row | Structure (SMILES) | Potency | activity change, negative = inhibition
21 | Nc1ccc(-c2nc3cc([N+](=O)[O-])ccc3o2)cc1 | inconclusive: 28.2 µM [quencher, side channel, partial curve] | 
22 | O=C(NC1CCS(=O)(=O)C1)/C(=C\c1ccco1)NC(=O)c1ccccc1 (stereo not given) |  | inactive: 2.68%
23 | O=C(Nc1nnc(SCc2ccc(F)cc2)s1)c1ccccn1 |  | inactive: 29.9%
24 | COc1cccc(C(=O)Nc2cc(C(=O)NCCc3ccccc3)ccc2Cl)c1 |  | inactive: -0.121%
25 | Cc1ccc(C(C)C)c(OCc2nnc(SCC(=O)Nc3ncc(C)s3)n2C)c1 | inconclusive: 39.8 µM [fluorescent, side channel, single point] | 
26 | CCCOc1ccc(C(=O)C(CN2CCCC2)c2ccccc2)cc1 (stereo not given) |  | inactive: -1.03%
27 | CCOC(=O)c1cc2ccc(OC(=O)c3ccco3)cc2oc1=O | inconclusive: 15.8 µM [quencher, side channel, partial curve] | 
28 | O=[N+]([O-])c1ccc2[nH]c(O)c(N=NC3CCS(=O)(=O)C3)c2c1 (stereo not given) | inconclusive: 3.55 µM [quencher, side channel, full curve] | 
29 | O=C1c2[nH]nc(-c3ccccc3O)c2C(c2ccc(F)cc2)N1Cc1ccco1 (stereo not given) | inconclusive: 0.708 µM [quencher, side channel, single point] | 
30 | COc1ccc(NC(=S)NC(=O)c2ccccc2Cl)cc1 | inconclusive: 39.8 µM [fluorescent, side channel, single point] | 
31 | O=C1C(C=NCc2ccccn2)=C(O)c2ccccc21 | inconclusive: 28.2 µM [quencher, side channel, partial curve] | 
32 | COc1ccccc1C(=O)Nc1cc(Cl)ccc1-n1cncn1 | inconclusive: 35.5 µM [fluorescent, side channel, single point] | 
33 | COc1ccc(OC)c(/C=N/NC(=O)CCc2ccc(O)c(O)c2)c1 | inconclusive: 39.8 µM [quencher, side channel, single point] | 
34 | COCCCNC(=S)N/N=C/c1ccc(O)cc1O |  | inactive: 7.84%
35 | O=C(CN1CCCCCC1)Nc1cc([N+](=O)[O-])ccc1Cl | inconclusive: 12.6 µM [quencher, side channel, partial curve] | 
36 | CC(C)c1ccc(C(C(=O)NC2CCCC2)N(C(=O)CNC(=O)c2ccco2)c2cccnc2)cc1 (stereo not given) | inconclusive: 79.4 µM [inhibitor, single point] | 
37 | O=C(CSC1=NNC(c2ccccn2)S1)Nc1ccc(C(F)(F)F)cc1 (stereo not given) |  | inactive: 14.2%
38 | C/C(=N/OCO/N=C(\C)c1ccc(F)cc1F)c1ccc(F)cc1F | inconclusive: 0.1 µM [fluorescent, side channel, full curve, poor fit] | 
39 | CN(Cc1ccccc1)Cc1c(O)ccc2ccccc12 |  | inactive: 9.06%
40 | NC(=O)CC(NC(=O)c1ccccc1)c1ccc(NCCN2CCCCC2)c([N+](=O)[O-])c1 (stereo not given) | inconclusive: 14.1 µM [quencher, side channel, partial curve] | 
